Experimental data as given in PubChem BioAssay AID1645882 (National Center for Advancing Translational Sciences (NCATS), 2021).
About 120 (0.75%) of roughly 16,000 compounds were called active. Roughly 4% stayed inconclusive and do not appear here. Calls come from the whole dose curve; as a rule, active = well fitted inhibition curve with a large enough effect; inconclusive = small, poorly fitted or top-dose-only effect; inactive = no such curve, though single readings can be large or run the other way. Some of the results follow. Where a SMILES comes first, the peptide text is derived from it. The star is where a group is joined. Cbz = O=C(OCc1ccccc1)*

target: Rap guanine nucleotide exchange factor 3 (Homo sapiens) (UniProt O95398); test: Validation qHTS for antagonist of cAMP-regulated guanine nucleotide exchange factor 3 (EPAC1); conditions: EPAC1 Rap1B-BODIPY-GDP exchange, fluorescence; series mostly up to 150 µM; activity change, negative = inhibition: at the top concentration;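 note: plate controls were DMSO for no effect and ATA control for full effect; nearly all actives have a fitted effect of over 75% in size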
UniProt O95398, sequence (O95398 whole entry, looked up): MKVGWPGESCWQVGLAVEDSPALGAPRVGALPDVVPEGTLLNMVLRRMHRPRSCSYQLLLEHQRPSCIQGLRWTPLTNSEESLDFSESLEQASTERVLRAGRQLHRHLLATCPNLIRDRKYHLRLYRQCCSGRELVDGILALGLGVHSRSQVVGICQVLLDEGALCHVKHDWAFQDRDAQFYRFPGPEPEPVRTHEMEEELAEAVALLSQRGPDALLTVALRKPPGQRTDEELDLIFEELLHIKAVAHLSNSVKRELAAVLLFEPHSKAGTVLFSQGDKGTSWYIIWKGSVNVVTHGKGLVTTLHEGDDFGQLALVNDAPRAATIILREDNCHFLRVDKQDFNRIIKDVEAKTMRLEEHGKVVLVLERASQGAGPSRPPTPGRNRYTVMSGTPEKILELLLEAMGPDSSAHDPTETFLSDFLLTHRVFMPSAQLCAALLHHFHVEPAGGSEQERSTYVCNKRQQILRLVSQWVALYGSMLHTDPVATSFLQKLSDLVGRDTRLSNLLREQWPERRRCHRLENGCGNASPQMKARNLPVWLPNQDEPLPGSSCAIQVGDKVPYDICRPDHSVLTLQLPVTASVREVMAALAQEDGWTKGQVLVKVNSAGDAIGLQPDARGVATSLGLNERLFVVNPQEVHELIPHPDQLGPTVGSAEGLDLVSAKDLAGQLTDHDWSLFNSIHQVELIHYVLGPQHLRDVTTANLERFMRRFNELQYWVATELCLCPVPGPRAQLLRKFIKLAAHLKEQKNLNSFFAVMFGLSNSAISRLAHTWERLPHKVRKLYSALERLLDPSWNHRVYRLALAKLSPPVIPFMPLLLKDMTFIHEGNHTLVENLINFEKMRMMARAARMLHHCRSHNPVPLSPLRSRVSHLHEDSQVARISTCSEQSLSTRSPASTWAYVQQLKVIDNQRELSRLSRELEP
How it was run: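 EPAC1 (100 nM) mixed with 250 nM RAP1B-BODIPY-GDP and 50 uM GDP; compounds in concentration series, 5 min at room temperature. Fluorescence (ex 480/em 540 nm) read every 5 min for 30 min; normalized to ATA control and DMSO.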

Activity change, negative = inhibition, inactive:
CN(Cc1ccco1)c1ncnc2ccc(-c3cccc(C#N)c3)cc12 1.15%
COCCn1c(=O)c(-c2cccs2)nc2cnc(OC)nc21 3.61%
CN(CCO)CC(O)Cn1cnc2c1c(=O)n(C)c(=O)n2C (stereo not drawn) (tested in a mixture with another compound) -0.556%
c1ccc(-c2cn(CC3CCCCC3)nn2)cc1 9.63%
Oc1ccc(-c2cnccn2)cc1CN1CCN(C2CCCCC2)CC1 23%
Cc1cnc(CNc2cc(-c3ccc(N(C)C)cc3)ncn2)cn1 23.4%
CC(=O)Nc1ccc(-c2nc3ccc(Cl)cc3[nH]2)cc1 7.35%
CN[C@H](CC(C)C)C(=O)N[C@H]1C(=O)N[C@@H](CC(N)=O)C(=O)N[C@H]2C(=O)N[C@H]3C(=O)N[C@H](C(=O)N[C@@H](C(=O)O)c4cc(O)cc(O)c4-c4cc3ccc4O)[C@H](O)c3ccc(c(Cl)c3)Oc3cc2cc(c3O[C@@H]2O[C@H](CO)[C@@H](O)[C@H](O)[C@H]2O[C@H]2C[C@](C)(N)C(O)[C@H](C)O2)Oc2ccc(cc2Cl)[C@H]1O (stereo partly drawn)
CCCCC[C@H](O)/C=C/[C@@H]1[C@@H](C/C=C\CCCC(=O)O)[C@@H](O)C[C@H]1O
CCSC(=N)N
CCC(N)(C(=O)O)c1ccc(C(=O)O)cc1 (stereo not drawn) 7.58%
CNc1ncnc2c1ncn2[C@H]1C[C@H](OP(=O)(O)O)[C@@H](COP(=O)(O)O)O1 -9.79% [at 75.8 µM]
COc1ncc2nc(CCc3ccccc3)c(=O)n(CCC#N)c2n1 7.32%
CC(COc1ccccc1)N(CCCl)Cc1ccccc1 (stereo not drawn)
Nc1ncn([C@@H]2O[C@H](CO)[C@@H](O)[C@H]2O)c(=O)n1
CCCNC(C)C(=O)Nc1ccccc1C (stereo not drawn)
COc1ccc(CN(CCN(C)C)c2ccccn2)cc1
COc1cc(/C=C/C(=O)N2CCN(CC(=O)N3CCCC3)CC2)cc(OC)c1OC 2.5%
CCCCCCCCCCCCCCCCCCOP(=O)([O-])OC1CC[N+](C)(C)CC1 21.7% [at 75.8 µM]
Nc1nc(Cl)nc2c1ncn2[C@@H]1O[C@H](COP(=O)(O)OP(=O)(O)OP(=O)(O)O)[C@@H](O)[C@H]1O -3.27% [at 75.8 µM]
CC(=O)Oc1cccc2c1C(=O)c1c(OC(C)=O)cc(C(=O)O)cc1C2=O -15.6%
C#C[C@]1(O)CC[C@@H]2[C@H]3CCC4=CC(=O)CC[C@H]4[C@H]3C(=C)C[C@@]21CC 16%
Cc1ncc(CSSCc2cnc(C)c(O)c2CO)c(CO)c1O 26.2%
N#Cc1cccc(-c2cncnc2NCc2ccccc2)c1 -0.561%
C[C@H](CCC(=O)O)[C@H]1CC[C@H]2[C@H]3C(C[C@H](O)[C@]12C)[C@@]1(C)CC[C@@H](O)C[C@H]1C[C@H]3O (stereo partly drawn) 2.13%
C=C[C@@H]1c2ccccc2N(S(=O)(=O)c2ccc(C)cc2)[C@H](c2ccc(C(F)(F)F)cc2)C1(C#N)C#N -1.82%
CCC1(C2CCN(Cc3cccc(Cl)c3)CC2)NC(=O)N(CC2COc3ccccc3O2)C1=O (stereo not drawn) -16.4%
NCCn1c(=O)c(CCc2ccccc2)nc2cncnc21 -4.9%
COc1ccccc1CN1CCCC2(CCN(C(=O)c3cnccn3)CC2)C1 26.7%
O=C(NC1CCC(=O)N(CCSc2ccccc2)CC1)OCc1ccccc1 (stereo not drawn) -3.99%
CN1CCN(c2ncc3nc(-c4ccc(Cl)cc4)c(=O)n(Cc4ccc(F)cc4)c3n2)CC1 1.27%
CCCCC(C)(O)C/C=C/[C@H]1[C@H](O)CC(=O)[C@@H]1CCCCCCC(=O)OC (stereo partly drawn) 20.4%
CCC1(O)CC2CN(CCc3c([nH]c4ccccc34)[C@@](C(=O)OC)(c3cc4c(cc3OC)N(C)C3[C@]45CCN4CC=C[C@@](CC)([C@@H](OC(C)=O)[C@]3(O)C(=O)OC)[C@H]45)C2)C1 (stereo partly drawn) -3.13% [at 75.8 µM]
Cc1ccc2cc(CNCc3cccc4ccccc34)c(N3CCC(O)CC3)nc2c1 6.71%
CCCCC/C=C\C\C=C/C=C/C=C/[C@@H](SCC(NC(C)=O)C(=O)O)[C@@H](O)CCCC(=O)O (stereo partly drawn) 18.2% [at 1.57 µM]
NC(C(=O)O)C(O)C(=O)O (stereo not drawn) 12.2%
Cc1csc(C)[n+]1CCC1CCCCC1 8.71%
O=C1C2=C(S[C@@H]3O[C@H](CO)[C@@H](O)[C@H](O)[C@H]3O2)C(=O)c2ccccc21 3.85%
CN(C)c1nc(-c2cccnc2)nc2ccccc12 -15%
O=C(O)c1cc(O)c2c(c1)[O][Bi][O]2 8.54%
O=C(c1cccc(F)c1)N1CCC2(CC1)CN(c1ncccn1)C2 6.06%
COC(=O)C[C@](O)(CCCC(C)(C)O)C(=O)O[C@@H]1C(OC)=CC23CCCN2CCc2cc4c(cc2[C@H]13)OCO4 (stereo partly drawn) 23.6%
O=c1oc(Cl)c(Cl)c2ccccc12 6.94% [at 75.8 µM]
c1ccc(CNc2ccnc(-c3cccnc3)n2)cc1 -3.66%
O=C(NCc1ccccn1)c1cnn(-c2ncc3c(n2)-c2ccccc2CC3)c1C1CC1 10.3%
CC1=C(\C=C/C(C)=C/C=C\C(C)=C\C(=O)O)C(C)(C)CCC1
Cc1cc(-c2ccnc(-n3ncc(C(=O)NCC4CCCN(C)C4)c3C3CC3)n2)c(C)s1 (stereo not drawn) 2.46%
N[C@H]1C(O)O[C@H](CO)[C@@H](O)[C@@H]1O (stereo partly drawn) 20.1%
CN1C2CC(OC(=O)[C@H](CO)c3ccccc3)CC1C1OC12 (stereo partly drawn) -0.794% [at 75.8 µM]
COCC(=O)N1CCC2(CCN(Cc3ccncc3)CC2)CC1 12.9%
O=S1(=O)[C@H]2C[C@@H]3C=C[C@@]2(CN1Cc1cccc(F)c1)O3 15.7%
COc1cccc(-c2ccc3ncnc(NCCN4CCOCC4)c3c2)c1 4.01%
CN1CCN(c2ncc3nc(CCc4ccccc4)c(=O)n(Cc4ccc(F)cc4)c3n2)CC1 9.68%
C=C1C[C@H]2[C@@H]3C=C(C)C4=CC(=O)CC[C@]4(C)[C@H]3CC[C@]2(C)[C@@]1(OC(C)=O)C(C)=O 14%
C[C@H](N)CCP(=O)(O)O 32%
Cc1ccc(CNc2nc(CN3CCSCC3)nc3ccccc23)o1 11.3%
COCCN1CCN(C(=O)c2cnn(-c3nccc(-c4ccco4)n3)c2C(C)C)CC1 15.6%
CCCCN1CC[C@H]2C=CC[C@@H](C(=O)Nc3nccs3)[C@H]2C1=O 9.75%
Nc1ccn([C@H]2CS[C@@H](CO)O2)c(=O)n1 14.3%
Cc1nc2cc(NC(=O)C3CC34CCN(Cc3ccc(O)c(Cl)c3)CC4)ccc2s1 (stereo not drawn) 4.03%
COc1ncc2nc(-c3ccccc3)c(=O)n(C)c2n1 7.29%
COc1ccccc1CNc1nc(-c2cccc(C#N)c2)nc2ccccc12 -19.8%
CC(C)C[C@@H](C=O)NC(=O)[C@H](CC(C)C)NC(=O)[C@H](CC(C)C)NC(=O)OCc1ccccc1 (Cbz-Leu-Leu-Leu-aldehyde) 16.3%
COc1cc(OC)c(/C=C/c2ccccn2)c(OC)c1 23.8%
COc1ccc(C(C)N(C)Cc2nc(N3CCN(C(=O)c4ccco4)CC3)c3ccccc3n2)cc1 (stereo not drawn) -1.89%
NCCCCCCCCCCN -4.09% [at 75.8 µM]
Cc1ccnn1CC(=O)N1CCOc2c(cc(-c3csc4ccccc34)cc2OC2CCOC2)C1 (stereo not drawn) 5.15%
COc1ccccc1C(=O)N1CCOc2ccc(CN3CCN(Cc4ccccn4)CC3)cc2C1 18.4%
CCOC(=O)C(CCc1ccccc1)NC(C)C(=O)N1C(C(=O)O)CC2CCCC21 (stereo not drawn) 12.9%
COc1cc(/C=C/C(=O)O)cc(OC)c1OC 7.44%
Oc1cc(-c2cccs2)cc2c1OCCN(Cc1cn[nH]c1-c1ccc(Cl)cc1)C2 -16.3%
CC(=O)/C=C1\C(=O)N(C)c2ccccc21 -0.804% [at 75.8 µM]
CC(C)(C)[C@@H]1CCC(=O)N(CC[C@H](Sc2ccc(Br)cc2)c2ccccc2)CC1 2.73%
COc1ccc2[nH]c(C(O)C(O)c3nc4c(OC)c(OC)ccc4[nH]3)nc2c1OC (stereo not drawn) 16.7%
Cc1cnc(-n2ncc(C(=O)NCCc3cccnc3)c2C)nc1-c1cccs1 6.73%
OC[C@H]1O[C@@H](Oc2ccc(O)cc2)[C@H](O)[C@@H](O)[C@@H]1O 20.8%
Nc1ccc(S(=O)(=O)c2ccc(N)cc2)cc1
COc1ccc(OC)cc1 9.67%
OCCN1CCN(CCCN2c3ccccc3Sc3ccc(Cl)cc32)CC1
COc1ccc(-c2nc3cnc(Oc4ccccc4)nc3n(C3CC3)c2=O)cc1 11.8%
CN1CCCC2(CCN(C(=O)c3cccc(F)c3)CC2)C1 18.8%
CC(C)C(C)(C)C(C)(C)C(C)(C)S 11.2% [at 320 µM]
c1ccc(CNc2nc(-c3ccoc3)nc3ccccc23)cc1 -4.51%
COc1ccc2c(c1)c1c3n2CCN(C)C3=NCC1 9.42%
CN(C)CCc1c[nH]c2ccc(Cn3cncn3)cc12 22.9%
CCCC(=O)O[C@]1(C(=O)COC(C)=O)CC[C@H]2[C@@H]3C[C@H](F)C4=CC(=O)C=C[C@]4(C)[C@@]3(F)[C@@H](O)C[C@@]21C -4.63%
O=C(c1cccc(F)c1)N1CCC2(CC1)CN(Cc1ccccc1)C2 -6.25%
Cn1nnnc1SCC1=C(C(=O)O)N2C(=O)[C@@H](NC(=O)[C@H](O)c3ccccc3)[C@H]2SC1 18% [at 75.8 µM]
COCCn1c(=O)c(CCc2ccccc2)nc2cnc(Oc3ccc(OC)cc3)nc21 -4.13%
CS(=O)(=O)N1CCC2(CCN(Cc3nccs3)CC2)CC1 15.4%
Nc1ccc(C(=O)NCC(=O)O)cc1
COc1ccc(NS(=O)(=O)c2ccc(N)cc2)nn1
C#C[C@]1(O)CC[C@H]2[C@@H]3CCC4=Cc5oncc5CC4(C)[C@H]3CCC21C (stereo partly drawn) -1.09% [at 75.8 µM]
COc1ccccc1CN1CC2(CCN(C(=O)c3ccncc3)CC2)C1 15.5%
COc1ccc(-n2c(=O)cnc3cnc(N(C)C)nc32)cc1 11%
COC(=O)[C@@H]1CCCN1C(=O)c1c(OC)cc(=O)n2c1CCN(Cc1c(C)[nH]c3ccccc13)CC2 -3.83%
CC1(C)OC(=O)NC1=O 17.6%
CN(N=O)C(=O)N[C@H]1C(O)OC(CO)[C@@H](O)[C@H]1O (stereo partly drawn) -18%
